Measurements from the supplement of paper PMC10126150.
Values marked as one replicate rest on one cluster of the flow cell; about a third of the high ones do not repeat.

test system: ATP; assay: switch fluorescence ratio, 500 uM ATP over buffer (Cy3 cluster intensity, sum of 5 cycles each) (fold (ratio)); higher = stronger signal-on switching upon ATP binding; sequences stand for … in TCGTCGGCAGCGTCAGATGTGTATAAGAGACAGTTTTTTTTTTTTTTTTTTTTTTTTT…TC; conditions: aptamer strand: ATP DNA aptamer (quencher-CACCTGGGGGAGTATTGCGGAGGAAGG + anchor), 100 nM annealed; ATP concentration: 500 uM; one replicate
Summary of the method: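 The quencher-labelled ATP aptamer, at 100 nM, was annealed to Cy3-labelled switching-strand clusters on a modified Illumina MiSeq flow-cell. The clusters were imaged in selection buffer, then after 15 min with 500 uM ATP at 22 °C, and this buffer/ATP cycle ran five times with NaOH stripping and re-annealing between runs. Per-cluster fluorescence ratios, summed target-cycle over summed buffer-cycle Cy3 intensity, were averaged per switch-domain sequence. Clusters outside 100-1000 RFU were excluded.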
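Also: ATP exposure 15 min at 22 °C before imaging.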

Switch fluorescence ratio, 0.979:
GAGGATCTAA, GATCTTAGAA

Switch fluorescence ratio, 0.999:
GAGCTCACCC, GATAGGTTTT, GATCGGCTCA

Switch fluorescence ratio, 0.98:
GACTGGG, GAGTATCAT

Switch fluorescence ratio, 0.987:
GAGTCGGACC

Switch fluorescence ratio, 0.996:
GAGGTGTCTG, GATCTTTAAC

Switch fluorescence ratio, 0.924:
GAGCGGGGTC

Switch fluorescence ratio, 0.982:
GAGGTTTGGT, GAGTGTGGGT, GATCAGGACA

Switch fluorescence ratio, 1.14:
GAGGGAGGC

Switch fluorescence ratio, 0.972:
GAGCCGGGTC, GAGTTCGCCG, GATACACGTA

Switch fluorescence ratio, 1.1:
GAGCACACAT, GAGCCCGTCG, GAGCGGGCAA

Switch fluorescence ratio, 0.963:
GATCGATTCG

Switch fluorescence ratio, 2.35:
GATAGCAAGC

Switch fluorescence ratio, 0.986:
GAGTTAACGT

Switch fluorescence ratio, 0.998:
GAGTATGAGT, GATAATGCAT

Switch fluorescence ratio, 0.905:
GAGAAGCCTG

Switch fluorescence ratio, 0.927:
GAGAGTTGAC

Switch fluorescence ratio, 1.07:
GACTCCTACG, GAGCTGGG, GATAGTATCA, GATCGCATCG, GATCTAACTT, GATGACACTA

Switch fluorescence ratio, 0.989:
GAGATTTGTG, GATATTCGG

Switch fluorescence ratio, 0.985:
GAGGGCTCGG

Switch fluorescence ratio, 0.931:
GATAAGGAGC

Switch fluorescence ratio, 0.937:
GATCCTTTTG

Switch fluorescence ratio, 1.45:
GATAGCAGGC

Switch fluorescence ratio, 1.06:
GACTCCCGTC, GAGTTCTCTG, GATAACCTAG

Switch fluorescence ratio, 1.16:
GACTGGACTA

Switch fluorescence ratio, 0.976:
GAGGTACGTC, GAGTCCTAGC

Switch fluorescence ratio, 0.981:
GAGACATGGG

Switch fluorescence ratio, 0.984:
GAGCATGCCA, GAGCCTAACT, GATCTGGGG

Switch fluorescence ratio, 0.971:
GAGGGTGGTG

Switch fluorescence ratio, 0.966:
GATATAGATC

Switch fluorescence ratio, 1.04:
GACTGACAGG, GACTGGGTTA, GACTGTAGGT, GACTTTGATC, GAGCAGTAGG, GAGCGCCGTC, GAGCGCGCAT, GAGCTTCATC, GAGGGTTACT, GAGTCGGAT, GAGTCTAAAT, GATCATTGGT, GATGATTACC

Switch fluorescence ratio, 1.05:
GAGACAAGCG, GAGACTCATA, GAGCACACGG, GAGCTACACG, GAGGGGAAT, GAGGGTAATT, GATACATGTT, GATAGTATTA, GATCCTTAAC, GATCGATGCA, GATCGTCGCA

Switch fluorescence ratio, 3.59:
GAGACTCCCC

Switch fluorescence ratio, 1.12:
GACTCGGGTG, GACTGCGTGC, GATACCTGCA

Switch fluorescence ratio, 0.96:
GAGCCGTTAG, GAGGAGTAGT, GAGGGTGGTT

Switch fluorescence ratio, 0.97:
GAGGAAGTGC

Switch fluorescence ratio, 1.37:
GATACGAGTA

Switch fluorescence ratio, 0.953:
GAGACTCGGT, GATATAGCGG

Switch fluorescence ratio, 0.993:
GACTTCAGC, GAGATATGGC, GAGCTATGGA

Switch fluorescence ratio, 1.42:
GACTCGGAAA

Switch fluorescence ratio, 0.974:
GAGTAGCGTT

Switch fluorescence ratio, 0.973:
GAGCCGGCGG, GATAAATGAG

Switch fluorescence ratio, 0.994:
GAGAATTGCT, GAGTGGTGGG

Switch fluorescence ratio, 0.988:
GAGGTGTTAA

Switch fluorescence ratio, 1:
GACTGAATCT, GACTGGAGTG, GAGAAGCAAT, GAGATGAGAT, GAGATGCACT, GAGCGGGGCA, GAGGAAAAGG, GAGTCAAATC, GAGTGTAATG, GATAGATAGC, GATAGGCAG, GATATATCG, GATCGTGAAG, GATGAAAACG, GATGACCAA, GATGACGTGT

Switch fluorescence ratio, 0.939:
GAGTCCGACT, GATGCAAAAA

Switch fluorescence ratio, 0.933:
GATCCCGGGG

Switch fluorescence ratio, 0.977:
GAGTTAACAT

Switch fluorescence ratio, 0.955:
GAGAAATGTA

Switch fluorescence ratio, 1.03:
GACTTAGGCG, GACTTGAGGC, GAGCGATGTG, GAGGCCCGAG, GAGGCCGTT, GAGGGACCGA, GAGGTAGCAG, GAGTCAATT, GAGTCACATG, GATAATGTAG, GATATTCCAC, GATCGGTGA, GATCTGGGGA, GATGCCCGGG

Switch fluorescence ratio, 1.23:
GACTCGCAAG, GAGGCAAGTA

Switch fluorescence ratio, 1.19:
GAGTACGTAA, GATGACTCCG

Switch fluorescence ratio, 1.01:
GACTCCTATG, GACTGAGACT, GAGAGAGTAA, GAGAGGCATG, GAGAGTGCGT, GAGCCTTGCA, GAGGAATGGG, GAGGACGATC, GAGGGACATA, GAGGGATGCG, GAGGGGCTAC, GAGGTTAGAA, GAGTCACCGA, GAGTTATCAA, GAGTTGAATA, GAGTTGTCGT, GATAAAGGCC, GATAAATGCC, GATACAGTTT, GATACGGCGC, GATACTTTTC, GATAGCTGTG, GATAGTTACT, GATAGTTTAA, GATATTCATC, GATATTTGTT, GATCTCATCC

Switch fluorescence ratio, 1.09:
GACTGGAGCC, GACTGGCTGT, GAGCGTCTAC, GAGGTACCCT, GATAATACGG

Switch fluorescence ratio, 0.954:
GAGTTTCGGA

Switch fluorescence ratio, 1.02:
GACTGAAGCG, GACTTGTGCG, GACTTTAGCT, GACTTTGTGA, GAGAGGTAGG, GAGATGTAA, GAGCTTGTAG, GAGGGAGAGG, GAGGTTCC, GAGTATAACC, GAGTCGCACC, GAGTCTATAG, GATACACTCA, GATACATTTA, GATATCTTCT, GATCATGATA, GATCCACAAG, GATCCAGAAC, GATGAAGTTA, GATGCAGTG

Switch fluorescence ratio, 1.08:
GAGAAAAACT, GAGGACCC, GAGTTACACC, GATAACACC, GATACTCAGG

Switch fluorescence ratio, 0.945:
GAGATACGTT, GAGCTGTATA

Switch fluorescence ratio, 0.975:
GAGGAAAAAA

Switch fluorescence ratio, 0.997:
GAGTCTGAGG

Switch fluorescence ratio, 0.962:
GAGGGTGCTT

Switch fluorescence ratio, 1.2:
GACTGTAAAC

Switch fluorescence ratio, 0.992:
GATCTATGCT
